Laboratory results as given in publication PMC4336329 (PLoS ONE, 2015).
Out of some 310,000 compounds screened, about 14,000 (4.5%) showed an effect of 50% or more. Effects have a minus sign here. This is one part of the list.

molecular target: human ether-à-go-go-related gene (hERG) potassium channel (human, UniProt Q12809); assay: primary screen, population patch clamp on CHO cells stably expressing hERG
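Further: peak tail current of the secondary pulse compared with the same well before compound.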

Chain of human ether-à-go-go-related gene (hERG) potassium channel (Q12809 whole entry, looked up): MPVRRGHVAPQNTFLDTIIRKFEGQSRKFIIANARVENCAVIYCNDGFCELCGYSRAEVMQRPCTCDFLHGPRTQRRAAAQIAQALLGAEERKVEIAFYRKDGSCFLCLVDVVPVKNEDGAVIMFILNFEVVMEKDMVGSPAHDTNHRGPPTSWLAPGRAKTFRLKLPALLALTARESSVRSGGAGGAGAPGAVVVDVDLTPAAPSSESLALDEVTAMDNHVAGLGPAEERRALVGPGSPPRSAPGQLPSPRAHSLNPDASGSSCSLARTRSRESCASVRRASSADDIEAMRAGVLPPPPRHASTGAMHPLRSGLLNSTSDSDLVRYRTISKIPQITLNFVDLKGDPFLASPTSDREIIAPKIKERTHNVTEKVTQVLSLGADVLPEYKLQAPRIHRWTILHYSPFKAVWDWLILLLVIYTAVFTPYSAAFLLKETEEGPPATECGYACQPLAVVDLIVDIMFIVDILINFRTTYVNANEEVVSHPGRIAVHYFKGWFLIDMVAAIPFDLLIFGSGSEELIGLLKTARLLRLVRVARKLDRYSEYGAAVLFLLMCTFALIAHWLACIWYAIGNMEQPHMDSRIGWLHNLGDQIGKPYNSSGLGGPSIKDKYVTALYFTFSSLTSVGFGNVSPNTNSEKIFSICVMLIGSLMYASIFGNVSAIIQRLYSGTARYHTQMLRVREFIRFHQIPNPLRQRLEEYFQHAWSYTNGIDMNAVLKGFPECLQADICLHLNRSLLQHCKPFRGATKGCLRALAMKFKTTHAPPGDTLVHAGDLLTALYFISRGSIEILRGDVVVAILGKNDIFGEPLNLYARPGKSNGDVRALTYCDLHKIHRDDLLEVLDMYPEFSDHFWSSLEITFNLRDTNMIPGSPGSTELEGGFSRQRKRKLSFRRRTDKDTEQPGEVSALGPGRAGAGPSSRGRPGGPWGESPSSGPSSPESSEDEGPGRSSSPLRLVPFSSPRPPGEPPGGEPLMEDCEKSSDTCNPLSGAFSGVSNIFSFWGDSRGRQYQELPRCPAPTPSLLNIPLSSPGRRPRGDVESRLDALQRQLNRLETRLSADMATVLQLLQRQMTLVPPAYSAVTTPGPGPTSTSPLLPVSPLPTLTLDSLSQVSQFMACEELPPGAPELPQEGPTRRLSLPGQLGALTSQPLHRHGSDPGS

SMILES | hERG current change (%, negative = inhibition) at 10uM [%]
O=C(COc1ncnc2ccccc12)Nc1cc([N+](=O)[O-])ccc1F | -0.876
CC(=O)Nc1sc2c(c1C(c1ccncc1)N1CCOCC1)CCCC2 (stereo not shown) | 0.514
Cc1nc(SC(C)C(=O)Nc2c(C)n(C)n(-c3ccccc3)c2=O)nc(C)c1C (stereo not shown) | -27.2
CC12CCC(C(=O)N/N=C/c3ccc(O)cc3O)(OC1=O)C2(C)C (stereo not shown) | 7.7
Cc1ccn2c(=O)c(NC(=O)c3cccc4ccccc34)c(C)nc2c1 | -1.31
CCNC(=O)NCc1c(C)c(C)n(Cc2ccccc2)c1-n1cccc1 | 3.68
Cc1[nH]nc2c1C(c1ccsc1)C1=C(CC(C)(C)CC1=O)N2 (stereo not shown) | 26.3
Cc1ccc(S(=O)(=O)Nc2ccc(NC(=O)/C=C/C(=O)O)cc2)cc1 | 13.4
CCCCN1C(=O)NC(=O)C2(Cc3ccccc3N3CCOCC32)C1=O (stereo not shown) | 18.7
CCN(CC(=O)Nc1ccccc1C(F)(F)F)C(=O)c1ccc(N2C(=O)CCC2=O)cc1 | 16.1
Cc1cc2oc(=O)cc(CN3CCCCC3C)c2cc1C(C)C (stereo not shown) | -22
Cc1cccc(NC(=O)c2ccccc2OCC(=O)c2ccc(F)cc2)c1 | 4.39
CC1CCCC(NC(=O)CCNC(=O)c2ccccc2Cl)C1C (stereo not shown) | 1.35
S=C(NCc1ccc(Cl)cc1)NCc1ccco1 | 4.1
C=CCn1c(=O)/c(=C2/Sc3ccccc3N2CC)s/c1=C1/C(=O)NN=C1C | 5.68
CCCC/C(O)=C1\C(=O)CCCC1=NCCc1c(C)[nH]c2ccccc12 | -12
CC(=O)c1ccc(N2CCN(C(=S)Nc3cccc(F)c3)CC2)cc1 | 6.66
CC(C)[C@H](NC(=O)OC(C)(C)C)C(=O)NCC1CCC(C(=O)N[C@@H](Cc2ccccc2)C(=O)O)CC1 (stereo partly shown) | 10.2
COc1ccc2[nH]c(=O)c(CNC3CCCCC3)cc2c1 | -8.14
Fc1ccc(COc2ccc(Cl)cc2/C=N/Nc2nc(N3CCCC3)nc(N3CCCC3)n2)cc1 | 4.86
CCC(=O)n1nc(-c2ccc(Cl)cc2)nc1SC | 18.9
O=C(NCCc1ccccc1)C(=O)NCC1OCCN1S(=O)(=O)c1ccc(Cl)cc1 (stereo not shown) | -3.63
Cc1cc(NC(=O)CCCn2nc([N+](=O)[O-])c(Cl)c2C)no1 | -11.7
FC(F)(F)c1cccc(-c2ccn3ncnc3n2)c1 | -0.371
O=C(N[C@@H](Cc1ccccc1)C(=O)O)c1cccnc1 | 13
Cc1ccc(OC(=O)C(F)(F)F)c2c1NCCC2 | -8.82
CC(C)CN(C(=O)CN1CCN(c2ccc(O)cc2)CC1)c1c(N)n(CC(C)C)c(=O)[nH]c1=O | 24.8
COc1ccccc1C(=O)NC(=O)COC(=O)CN1C(=O)NC2(CCCCC2C)C1=O (stereo not shown) | -13

SMILES | hERG current change (%, negative = inhibition) at 10uM [%]
CCCOC(=O)c1cc(=O)[nH]c2ccccc12 | 1.37
Cc1[nH]n(-c2cccc(Cl)c2)c(=O)c1C=NCc1ccco1 | -19.1
Cn1nnnc1Sc1c(Cl)cccc1[N+](=O)[O-] | 11
CCc1ccc(N2CCN(CCNC(=O)Nc3ccccc3)CC2)cc1 | -21.1
Cc1ccc(NC(=O)n2ncc3c(C)cccc32)cc1F | 20.5
O=C(Nc1c2c(nn1-c1ccc(F)cc1)CSC2)c1ccc(S(=O)(=O)N2CCOCC2)cc1 | -16.2
COc1ccc(OC)c(-n2c(SCC(C)=O)nnc2-c2cccc(S(=O)(=O)N(C)C)c2)c1 | -16.9
Cc1sc2c(c1C)CN(CCN1CCOCC1)CN2C(=O)c1ccccc1 | 2.64
CS(=O)(=O)N1CCN(c2ccc([N+](=O)[O-])c(NCc3ccccc3)c2)CC1 | -8.11
Cc1ccc(S(=O)(=O)N2CCN(S(=O)(=O)N3CCOCC3)CC2)c(C)c1 | -11.6
O=C(CSc1nc2cc(Cl)ccc2s1)NCc1ccc2c(c1)OCO2 | 0.137
CC(C)c1ccccc1OCC(=O)Nc1cc(S(=O)(=O)N2CCOCC2)ccc1N1CCCC1 | -8.28
C=CCSc1nc2ccccc2n1C(=O)/C=C/c1ccc(OC)c(OC)c1 | -10.8
Cc1ccc(CN2CCNC(=O)C2CC(=O)NCCCn2cccn2)o1 (stereo not shown) | 11.9
CN(C)CCCNC(=S)/N=c1\sccn1Cc1ccccc1Cl | -44.4
Cc1ccsc1CN(C)C(=O)CN1C(=O)NC(c2ccccc2)(c2ccccc2)C1=O | -21.5
Nc1ccccc1SCC(=O)Nc1ccc2c(c1)OCCO2 | 3.12
COC(=O)CSc1nnc2c3c4c(sc3nc(-n3nc(C)cc3C)n12)COC(C)(C)C4 | -14.1
Cc1cccc(NC(=O)CCNC(=O)c2ccccc2Cl)n1 | -0.755
O=C(CCNS(=O)(=O)c1ccc2c(c1)CCC(=O)N2)Nc1ccc2c(c1)OCCO2 | -1.61
C[N+](C)(C)CCCCCCCCCC[N+](C)(C)C.[Br-] | 8.72
N#CCCSCc1ccc2oc(C(=O)O)cc2c1 | 13.5
CC(C)[C@H](NC(=O)c1ccco1)C(=O)OCC(=O)N(C)c1ccccc1 | -29.2
CCOC(=O)C(C)Oc1ccc(C2NC(=O)NC(C)=C2C(C)=O)cc1Br (stereo not shown) | -17
O=C(NC1CCS(=O)(=O)C1)c1ccc(-c2ccc(Br)cc2)o1 (stereo not shown) | -20.9
Cc1cc(NC(=O)CSc2ccc3nnc(-c4cccnc4)n3n2)no1 | -10.2
CC(=O)C(Cc1ccccc1)NC(=O)COC(=O)CCN1C(=O)C2CC=CCC2C1=O (stereo not shown) | 7.85
